Assay results reported in the supplement of paper PMC11417369.
The list shows a part of the results.

Each sequence was assayed on PF3D7_0420300 AP2 domain 1 (GST-tagged) (assay: gcPBM binding intensity (ln(normalized median fluorescence intensity)); higher = stronger DNA binding).
Method in brief: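 GST-tagged P. falciparum DNA-binding domains produced in E. coli were incubated for 1 h on an Agilent 4 × 180k array of primer-extended double-stranded 36-bp intergenic genomic probes with negative controls. Binding intensity is the highest Masliner-normalised natural-log median intensity across replicate spots of either probe orientation, with bound protein detected by Alexa488 anti-GST antibody at 488 nm.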

Sequence | gcPBM binding intensity (ln)
ATGCGTTCATACATACATACATACATACAATTTGTA [TGCATGCA_negctrl_site50] | 9.3
TTTTTATAACAAAGTATTTAAATAATTTATACTAAT [TGCATGCA_negctrl_site104] | 8.86
GAACAAATTACAAGTTGTACTTTATGTAAATTATTA [XGTACX_site5304] | 9.08
TGCTCATGAGGTCAGAGTACAAAATAGTAAATGTAT [XGTACX_site2973] | 9.1
TTTTGAATTAAACAAGCATGCTTTATTTACTTCTTA [TGCATGCA_site289] | 9.07
TAATTTATTAATAATTGTACAGATATTATACTTAAA [XGTACX_site8947] | 8.93
TAATTCATCCTATGCACACACAATACCAAAATGTGC [CACACA_site4269] | 9.56
TTTATTTTTATTTTTGTGCACGGGATTAAATAAAAG [GTGCAC_site9842] | 8.95
TTTTTTTTTTTTTTTCTTTTTTATTCTCACAAAAAA [CACACA_negctrl_site1790] | 8.31
AAGAAAAGTAAATATGCATGTAGGGTAGGTTATTTT [TGCATGCA_site46] | 9.3
CCTTTTTCTAATGGATGTACTTATTATATACATTAT [XGTACX_site281] | 9.37
ATATTTTTTCTGAACGGTACAGAATTTTTCAAGATT [XGTACX_site484] | 9.16
TATATATATCTGTATACACACATATGTATGTTATGT [CACACA_site6090] | 9.7
TTATTTTATCACACATGTACATATGTTAATTTTTTT [XGTACX_site5598] | 9.34
AAATTTATATATAGTTGTACAAAAATATGTTTCGTA [XGTACX_site4801] | 9.24
AAAATAAAAAGAAATAAATTAACAGTAAGGAAAAAA [CACACA_negctrl_site1105] | 9.54
TGAATAATCAATAGTACACACATATAAATATATATA [CACACA_site2813] | 9.61
ATTCCTCATTAATATTCTTATTTTTTAATTCACATT [XGTACX_negctrl_site329] | 9.37
TAAAAGGAGACATATACACACATATATATATATATA [CACACA_site5539] | 9.28
TTTATTTAAAATAAGTGTACTAGAAAAATTAAGCAG [XGTACX_site4982] | 9.07
TGTGATTATGATAAAAGTACAGAAATAAATATACTA [XGTACX_site38] | 9.23
ATAAAAAGCTAAAAAGTGCAAAAAGTAAATATTTAA | 9.5

Sequence | gcPBM binding intensity (ln)
TTTTATAAAGAACACAGACACACAAAGAAAGAACCA [CACACA_site4174] | 9.88
TATATATACTTAGAAACACACAAAAATATTTTATAA [CACACA_site2578] | 9.37
TAATTAGTTTTTACTTTTTTTTTTTTTTTTCTATAT [CACACA_negctrl_site1024] | 9.17
ATAATCCTGAAACACACACACACACCCATAAATAAA [CACACA_site481] | 10.1
TTATGTATATTATAAATTAATACCTTTAAATTAATA [CACACA_negctrl_site67] | 8.73
TATAACTTATTTTTTAGTACATATTATAGTTCATTT [XGTACX_site8649] | 9.23
CTTTCCCTATATTGCTGTACATGTATTCAAAAAACA [XGTACX_site353] | 9.21
CGCGAACATACATACACACACATATATATATCTGTA [CACACA_site4277] | 9.85
AACATTAATTTCCTATGTACTTAATATATTGTTTTT [XGTACX_site4440] | 9.47
AACACCCAAAAACACACACACATACATACATACATA [CACACA_site4411] | 9.98
ATTTATATATATGTATGTACGTATGTGTGTATATGT [XGTACX_site7587] | 9.71
ACCAATTTGACAAACTGTACAAAAAAAATATTAAAA [XGTACX_site1186] | 9.04
TACACAAAAATAAACACACACACATATATATATATA [CACACA_site1000] | 9.78
TATATATTCCTCCATAGTACAATAATAAAGATAAAA [XGTACX_site5785] | 9.12
TTTTTTTTTTTTTTTTTTATATTTCATAATTTCATT [XGTACX_negctrl_site579] | 8.76
TTTATATTTCATTTGTTATTTTTCTTGGTTCTATAT [TGCATGCA_negctrl_site23] | 9.73
TTTTGCCTGAACAATGCATGTTATTTTTATTTTTTT [TGCATGCA_site673] | 9.44
TCATTTAAGTCATATTGAAATATGCATTATTCAAAA [CACACA_negctrl_site958] | 8.87
ATCACTAATTTTTTTACACACCACAATTTAATTTTT [CACACA_site1186] | 9.68
AAATGTGTTAATGTGCGTACACATATATATAATATT [XGTACX_site2792] | 9.36
AATATATACACATGCGCACACACAAGTGGGAAATTT [CACACA_site8527] | 9.73
ATATGTACTATACGCACACACACTCACATATTTATA [CACACA_site7510] | 10

Sequence | gcPBM binding intensity (ln)
TTTATTTATATAATTACACACATATATACTCAAATG [CACACA_site5543] | 9.45
TTCTTAATTCATACCATCAAAACATTTATTCATATC [CACACA_negctrl_site43] | 9.06
ATAGGGTTTCTACTTTAACATTTTTGAAATATTATA [GTGCAC_negctrl_site260] | 9.13
ATAATAAATACACTAGTGCAAAATAATATATGTACT [GTGCAC_site9707] | 9.49
TATTTAGACATAACAAATAGACTAACAAAAGATTTA [GTGCAC_negctrl_site614] | 9.09
TATTATAAATAAATAGAAAAAAAAATGATAAATGGA [CACACA_negctrl_site865] | 9.37
AATATACGATTGTCATTCATACATTGTTAACATAGT [CACACA_negctrl_site1151] | 9.22
ATATACAGAAAAAATTAAAATAAATATGCAAAACAA [CACACA_negctrl_site704] | 9.53
ACATAGTAAATATTATGTACATAATATATACATTTA [XGTACX_site7500] | 9.24
TACAATGAACATGAAACACACAAAAAAAAAAAAAAA [CACACA_site1544] | 9.26
TACATATATATAATATATATATCATCATATTTTCTT [XGTACX_negctrl_site478] | 9.05
CTTAAACTTTTAAATACACACATACAGACATACACA [CACACA_site6401] | 9.86
TAAAAATGATCAAAGGGTACAGTATTAATTAAAAAA [XGTACX_site1079] | 9.28
TTTACTTTTTTTATATATTATTTATTATATAATATA [CACACA_negctrl_site211] | 9.2
CGGGGGTAGTTTTATGCACACGTTTATTAATGCTTC [CACACA_site5717] | 9.61
TGAAAAACTATCAGAGTGCATATATAGCTCGATACA | 9.22
ACCAATAATATACATACACACATAAATGTTTATATA [CACACA_site4328] | 9.59
ACATGAATATATACACGTACATATATACATATATAT [XGTACX_site5872] | 9.34
TAAAATAATATATGGTGTACACAAAAGTATAAATAA [XGTACX_site4991] | 9.46
TATATATATATATTATGTACTCATTTATTATCTTTT [XGTACX_site8051] | 9.36
AAAAAAATAATTAACACACACATGTATATCTATATA [CACACA_site3139] | 9.69
ATATAAAAAAAATTTAGTACATATATATATATATAT [XGTACX_site8635] | 8.89

Sequence | gcPBM binding intensity (ln)
ATTACCATATTTTGTACACACATCTTTATCTCAATA [CACACA_site3217] | 9.76
TAAAAATTAAAGTGTACACATATATATATATATATA [CACACA_site4781] | 9.2
TATAAACCGACGAAAACACACATATGTAAATATATA [CACACA_site491] | 9.69
TTTTATGTTTATGTGGTGCATGTTTTGAAGAAAATA [GTGCAC_site9616] | 9.22
AAACCTATGTATATTATACACACTCCAAACTATTAT [CACACA_site8536] | 9.54
AAAAACAAAATTTGGAGTACAGTTATAATATTATTA [XGTACX_site5245] | 9.29
TTATAAAGAAAAAATTGCTTTAAAAGAAAGATTACA [CACACA_negctrl_site960] | 8.68
ATATATATATGAATCACACACAAAAAATATAGAGAT [CACACA_site3913] | 9.9
AATGAAAAGAAATAATAAATAAATGATGACCAGCTG [GTGCAC_negctrl_site398] | 9.49
TGATTATCCTTCAGGAGTACATATAATATAATATAT [XGTACX_site1479] | 9.11
ACCTTTAATAAATACACACACATAAAAAAAATATAT [CACACA_site5086] | 10
TAATGTATTATTTAATGTACTTAAAAAATAAATAAA [XGTACX_site3296] | 8.95
AATGAACAGACGAGCACACACACACCCATATATATA [CACACA_site1018] | 10.1
TATTATATGAATAATTGTACGAAATTTAAAAGACAA [XGTACX_site7558] | 9.16
CACAAATATATACATACACACATATATACGCATATA [CACACA_site395] | 9.72
GGGGAGCTATCTCCTGCACACACAATTTTTTTTTTT [CACACA_site8703] | 9.43
AACCAAATTTCACCATGTACATATTGATAAATATAT [XGTACX_site1374] | 9.26
ATATGATTTGGATGTAGTACATATTTTTTTATGTTT [XGTACX_site1929] | 9.42
GCACCAAAAAAAAGACGTACAGTTATATTAAAATAG [XGTACX_site8926] | 9.06
AAATGAACAAGTGGCACACACACATTCTAACTAATT [CACACA_site3203] | 9.8
TATGTTTTTCGGTATGCATGCATATGCTTAATAATA [TGCATGCA_site184] | 9.19
AATATTAAACAAATGAAAAAAAAATATATATTATAT [CACACA_negctrl_site742] | 9.36
